Reference: the supplement of paper PMC9135407
Where “and” joins values, the source holds several entries; their conditions need not be identical. Equal values may be shown once. Where a name gives a salt, the structure may show the parent alone. Hit rate of the full screen: of about 5,800 compounds, about 620 (11%) showed activity.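 How the source made its calls: active = score above a cut-off or among the top three wells of a plate; in these data no inactive exceeds 0.85.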 The list shows a part of the results, in another mix than the full data.

Tested on: primary human hepatic stellate cells (donor 1)
Assay: scaled lipid accumulation score (0 = DMSO-like, 1 = nortriptyline-like); higher = stronger HSC inactivation (lipid re-accumulation), active = hit call of the paper
Conditions: 48 h
[1] = library stock concentration: 3.33 mM
[2] = library stock concentration: 10 mM
[3] = library stock concentration: 1 mM
[4] = library stock concentration: 400 uM
[5] = library stock concentration: 2 mM

NS(=O)(=O)c1ccc(NC(=O)Nc2ccc(F)cc2)cc1
scaled lipid accumulation score [1]: inactive: 0.042
scaled lipid accumulation score [2]: inactive: 0.029

O=C(O)CCC/C=C\C[C@H]1[C@@H](/C=C/[C@@H](O)CCc2ccccc2)[C@H](O)C[C@@H]1O [8-iso-17-phenyl trinor Prostaglandin F2.alpha.]
scaled lipid accumulation score [3]: inactive: ≤ 0

Cc1cccc(-c2[nH]ncc2-c2ccc3ncccc3n2)n1
scaled lipid accumulation score [1]: inactive: ≤ -0.004
scaled lipid accumulation score [2]: inactive: 0.004 and inactive: 0.433

Cn1cc(C2=C(c3ccc(Cl)cc3Cl)C(=O)NC2=O)c2ccccc21
scaled lipid accumulation score [2]: active: 1.22

CN(Cc1ccc(C(C)(C)C)cc1)Cc1cccc2ccccc12 [Butenafine HCl]
scaled lipid accumulation score [1]: inactive: ≤ 0
scaled lipid accumulation score [2]: inactive: 0.062

CN(Cc1ccc(C(C)(C)C)cc1)Cc1cccc2ccccc12 [Butenafine]
scaled lipid accumulation score (library stock concentration: 6.3 mM): inactive: ≤ -0.006

CN(C)CCOc1cc(-c2cn[nH]c2)ccc1NC(=O)C1COc2ccccc2O1 (stereo unspecified)
scaled lipid accumulation score [4]: inactive: ≤ -0.005
scaled lipid accumulation score [5]: inactive: 0.383

NCCCCN [Putrescine dihydrochloride]
scaled lipid accumulation score [2]: inactive: ≤ 0

N=C(CC(O)COc1ccccc1-c1ccccc1)N1CCCCC1 (stereo unspecified)
scaled lipid accumulation score [2]: inactive: 0.781

CCCCc1nc2ccn(Cc3cccs3)c(=O)c2n1Cc1ccc(-c2ccccc2-c2nn[nH]n2)cc1
scaled lipid accumulation score [2]: inactive: ≤ -0.006

O=C1OC(=O)[C@H]2[C@@H]1[C@@H]1CC[C@H]2O1 [Norcantharidin]
scaled lipid accumulation score [2]: inactive: 0.439

CN(C)CC[C@@H](c1ccc(Br)cc1)c1ccccn1
scaled lipid accumulation score [2]: inactive: ≤ 0

O=P(O)(O)OC1[C@@H](O)[C@H](O)C(O)[C@H](O)[C@@H]1O (stereo partly drawn) [D-myo-Inositol-3-phosphate (sodium salt)]
scaled lipid accumulation score [3]: inactive: 0.009

CC(C)NC(=N)NC(=N)Nc1ccc(Cl)cc1 [Proguanil hydrochloride]
scaled lipid accumulation score: inactive: 0.232

CC(C)NC(=N)NC(=N)Nc1ccc(Cl)cc1 [Chloroguanide hydrochloride]
scaled lipid accumulation score (library stock concentration: 6.9 mM): inactive: ≤ 0

Cc1nc2c(O)cccc2c(=O)[nH]1
scaled lipid accumulation score [2]: inactive: ≤ -0.006

O=C(NNc1ccccc1)c1ccncc1
scaled lipid accumulation score [1]: inactive: ≤ -0.009
scaled lipid accumulation score [2]: inactive: ≤ 0

COc1ccc2c3c1O[C@H]1C[C@@H](O)C=C[C@@]31CCN(C)C2 [Galanthamine hydrobromide]
scaled lipid accumulation score: inactive: 0.047
scaled lipid accumulation score (library stock concentration: 5.4 mM): inactive: ≤ 0
scaled lipid accumulation score [2]: inactive: ≤ 0

COc1ccc2c3c1O[C@H]1C[C@@H](O)C=C[C@@]31CCN(C)C2 [Galanthamine HBr]
scaled lipid accumulation score (library stock concentration: 7 mM): inactive: ≤ -0.006

COc1ccc2c3c1O[C@H]1C[C@@H](O)C=C[C@@]31CCN(C)C2 [Galanthamine]
scaled lipid accumulation score [2]: inactive: ≤ 0

Cc1cc(F)c(Nc2ncnc3cc(OCc4ccccc4)ccc23)cc1O
scaled lipid accumulation score [1]: inactive: ≤ 0
scaled lipid accumulation score [2]: inactive: 0.288 and inactive: 0.141

CCCC(=O)O[C@]1(C(=O)CO)CC[C@H]2[C@@H]3CCC4=CC(=O)CC[C@]4(C)[C@H]3[C@@H](O)C[C@@]21C [Hydrocortisone butyrate]
scaled lipid accumulation score [2]: inactive: 0.236

CC1(C)S[C@@H]2[C@H](NC(=O)COc3ccccc3)C(=O)N2[C@H]1C(=O)O [Penicillin v potassium]
scaled lipid accumulation score (library stock concentration: 5.1 mM): inactive: 0.003
scaled lipid accumulation score [2]: inactive: ≤ 0

CC1(C)S[C@@H]2[C@H](NC(=O)COc3ccccc3)C(=O)N2[C@H]1C(=O)O [Penicillin V]
scaled lipid accumulation score [2]: inactive: ≤ 0

Cc1nnc(SCC2=C(C(=O)O)N3C(=O)[C@@H](NC(=O)Cn4cnnn4)[C@H]3SC2)s1 [Cefazolin sodium]
scaled lipid accumulation score [2]: inactive: ≤ 0

Cc1nnc(SCC2=C(C(=O)O)N3C(=O)[C@@H](NC(=O)Cn4cnnn4)[C@H]3SC2)s1 [Cefazolin sodium salt]
scaled lipid accumulation score: inactive: ≤ 0

Cc1nnc(SCC2=C(C(=O)O)N3C(=O)[C@@H](NC(=O)Cn4cnnn4)[C@H]3SC2)s1 [Cefazolin?Sodium]
scaled lipid accumulation score [2]: inactive: ≤ 0

Cn1cncc1[C@@](N)(c1ccc(Cl)cc1)c1ccc2c(c1)c(-c1cccc(Cl)c1)cc(=O)n2C [Tipifarnib]
scaled lipid accumulation score [1]: inactive: ≤ 0
scaled lipid accumulation score [2]: inactive: 0.104

C=CC(=O)Nc1cc(-n2c(=O)ccc3cnc4ccc(-c5cn[nH]c5)cc4c32)ccc1C
scaled lipid accumulation score (library stock concentration: 80 uM): inactive: ≤ 0
scaled lipid accumulation score [4]: inactive: ≤ 0
scaled lipid accumulation score [5]: inactive: 0.082
scaled lipid accumulation score [2]: inactive: 0.662

Cc1cc(C#N)cc(C)c1Oc1nc(Nc2ccc(C#N)cc2)nc(N)c1Br [Etravirine (TMC125)]
scaled lipid accumulation score [1]: inactive: ≤ 0
scaled lipid accumulation score [2]: inactive: 0.454

O=c1[nH]c(=O)n([C@H]2C[C@H](O)[C@@H](CO)O2)cc1C(F)(F)F [Trifluridine]
scaled lipid accumulation score: inactive: ≤ 0
scaled lipid accumulation score [1]: inactive: ≤ 0
scaled lipid accumulation score (library stock concentration: 6.8 mM): inactive: 0.173
scaled lipid accumulation score [2]: inactive: ≤ 0 and inactive: ≤ -0.027

Nc1nc2c(ncn2[C@@H]2O[C@H](CO)[C@@H](O)[C@@H]2O)c(=O)[nH]1 [Ara-G hydrate]
scaled lipid accumulation score [2]: inactive: ≤ 0

NC1=NCC2c3ccccc3Cc3ccccc3N12 (stereo unspecified) [Epinastine HCl]
scaled lipid accumulation score [1]: inactive: ≤ 0
scaled lipid accumulation score [2]: inactive: 0.038
